Test results from the RNAGym collection of RNA variant scans (doi:10.7554/elife.90254).
Read counts are not given, so values of variants with three or more changes are uncertain.

B1: LINE1-mini (parent)
chain: GGCAGAGCUCAACACAGCGUGGCAAAGUGGCUGUGGCUAGACUGCC

Variants of: B1
Assay: self-cleavage, relative activity (ratio to wild type); higher = more cleavage; in vitro, sequencing; the parent is a self-cleaving ribozyme

| Variant | self-cleavage |
| --- | --- |
| GGCAGAGCUCAACAUAGCUUGGCAAAGUGCCUGUGGCUAGACUGCC [C15U G19U G30C] | 0.07 |
| GGCAGAGCUCAACAUAGCGUGGCAAAGUGCAUGUGGAUAGACUGCC [C15U G30C C31A C37A] | 0.09 |
| GGCAGAGCUCAACAUAGCGUGGCAAAGUGGCUGUCGCUAGACCGCC [C15U G35C U43C] | 0.02 |
| GGCAGAGCUCAACAGAGCGUGGCAAAGUGGCUGUUAAUAGACUUCC [C15G G35U G36A C37A G44U] | 0.01 |
| GGCAGAGCUCAACAUAGCGUGGCAAAGUGGCUGUGGUUAGCCUGCC [C15U C37U A41C] | 0.03 |
| GGCAGAGCUCAACAGAGCGCGGCAAAGUGGCUGAGACUAAACUGCC [C15G U20C U34A G36A G40A] | 0.13 |
| GGCAGAGCUCAACAUAGCGAGGCAAAGUGGCUGUAGCUAGACUGCC [C15U U20A G35A] | 0.06 |
| GGCAGAGCUCAACAUAGCGUGGUAAAGUGGCUGUGUCUAGACUGCG [C15U C23U G36U C46G] | 2.84 |
| GGCAGAGCUCAACAUAGCGUGGCACAGUGGAUGUGGCUAUACUGCC [C15U A25C C31A G40U] | 0.05 |
| GGCAGAGCUCAACAGAGCGAGGCAAAGUGGUUGUGGCUAGACUGCC [C15G U20A C31U] | 0.04 |
| GGCAGAGCUCAACAUAGGGUGGCAAAGUGGCUGUGGCUAGACUGCG [C15U C18G C46G] | 0.02 |
| GGCAGAGCUCAACAGAGCGUGGCAAAGUGUCUGUGACUCGACUGAC [C15G G30U G36A A39C C45A] | 0.02 |
| GGCAGAGCUCAACAUAGCGUGGCUAAGUGGCUGUGGCUCGACUGCC [C15U A24U A39C] | 0.01 |
| GGCAGAGCUCAACAUACCGUCGCAAAGUGGCAUUGGCUAGACUGCC [C15U G17C G21C U32A G33U] | 0.07 |
| GGCAGAGCUCAACAUAGCGGGGCAAGGUGGCUGUGGCUAGGCUGCC [C15U U20G A26G A41G] | 0.03 |
| GGCAGAGCUCAACAGAGCGUGGCAAAGUGGCUGUUGGUAGACUGCC [C15G G35U C37G] | 0.01 |
| GGCAGAGCUCAACAGAGCGUGGCAAAGUGCCUGUGGCUAGACAGCC [C15G G30C U43A] | 0.01 |
| GGCAGAGCUCAACAUCGCGUGGCAAAGUGGCUGUGGCUAGACUACC [C15U A16C G44A] | 0.08 |
| GGCAGAGCUCAACAGAGCGUGGCAAAGUUGCUGUGGCGUGACUGCC [C15G G29U U38G A39U] | 0.02 |

| Variant | self-cleavage |
| --- | --- |
| GGCAGAGCUCAACAUAGCGUGGCCAAGUGGCUGUGGCUAUACUGUC [C15U A24C G40U C45U] | 0.04 |
| GGCAGAGCUCAACAUAGCGUGGCCAUGUGGCUGUGCCUAGACUGCC [C15U A24C A26U G36C] | 0.04 |
| GGCAGAGCUCAACAGAGCGUGGCAAAGUGGCUGUGGCUAGACUCAC [C15G G44C C45A] | 0.01 |
| GGCAGAGCUCAACAGAGCGUGGCAAAGAGGCUGUGGCUAGACUGCU [C15G U28A C46U] | 0.09 |
| GGCAGAGCUCAACAGAGCGUGGCAAAGAGGCUGUGGCUAGACUGCG [C15G U28A C46G] | 0.1 |
| GGCAGAGCUCAACAUAGUGUGGAAUAGUGACUGUGGCUAGAUUGCC [C15U C18U C23A A25U G30A C42U] | 0.65 |
| GGCAGAGCUCAACAUAGCAUGGCAAAGUGGCUGUCGCUAGACUGCC [C15U G19A G35C] | 0.06 |
| GGCAGAGCUCAACAGAGCGCGGCAAAGUGGCUGUGGAUAGACUGCC [C15G U20C C37A] | 0.02 |
| GGCAGAGCUCAACAUAUCGUGACAAAGUGGCUGUGGCUAUACUGCC [C15U G17U G22A G40U] | 0.1 |
| GGCAGAGCUCAACAUAGCGUGGCAAAGUCGAUGUGGCUGGACUGCC [C15U G29C C31A A39G] | 0.3 |
| GGCAGAGCUCAACAGAGCGUGGCAAAGUGUCUGUGGCUAGACUGCG [C15G G30U C46G] | 0.03 |
| GGCAGAGCUCAACAGAGCGUGGCAAAGUGGCUGUUGCUAAACUGCU [C15G G35U G40A C46U] | 0.01 |
| GGCAGAGCUCAACAUAGCGUAGCAAAGUGGGUGUCGCUACACUGCC [C15U G21A C31G G35C G40C] | 0.06 |
| GGCAGAGCUCAACAUAGCGAGGCAAAGUGGCUGUGGCUCGACUGCC [C15U U20A A39C] | 0.17 |
| GGCAGAGCUCAACAGAGCGUGGCAAAGUUGCUGUGGCUAGACUGUG [C15G G29U C45U C46G] | 0.11 |
| GGCAGAGCUCAACAGAGCGUGGCAAAGUUACUGUAGCUAGACUGCC [C15G G29U G30A G35A] | 0.02 |
| GGCAGAGCUCAACAUACCGUGGCAAAUUGGCUGUGGCUGGACUGCC [C15U G17C G27U A39G] | 0.05 |
| GGCAGAGCUCAACAGAGCGUCGCAAAGUGGCCGUGGCUAGACUGCC [C15G G21C U32C] | 0.02 |
| GGCAGAGCUCAACAUAGCGUUGCAAAUUGGUUGUGGCUAGGCUCCC [C15U G21U G27U C31U A41G G44C] | 0.03 |

| Variant | self-cleavage |
| --- | --- |
| GGCAGAGCUCAACAGAGCGUGUCAAAGUGGCUGUGGCUAGCCUGCA [C15G G22U A41C C46A] | 0 |
| GGCAGAGCUCAACAUAGCGUAGCAAAGUGUCUGUGGCUAGAUUGCC [C15U G21A G30U C42U] | 0.05 |
| GGCAGAGCUCAACAUAGCGUUGCAAAGUGGCUGGGGCGAGACUGCC [C15U G21U U34G U38G] | 0.03 |
| GGCAGAGCUCAACAUCGCGUGGCAAAGUGGCUGUAGCAAGACUGCC [C15U A16C G35A U38A] | 0.01 |
| GGCAGAGCUCAACAUAGCGUGCCAAAGUGGCUGGGGCUAGACUGCU [C15U G22C U34G C46U] | 0.03 |
| GGCAGAGCUCAACAUAUCGUGGCAAAGUGGCGGUGGCUAGACUGCG [C15U G17U U32G C46G] | 0.02 |
| GGCAGAGCUCAACAUAGCGUGGCAAAGUCGCUGUGGCUAGAGUGCG [C15U G29C C42G C46G] | 0.02 |
| GGCAGAGCUCAACAUAGCGUGGCAAAGUGGCUGUGGCUAGAAUGGC [C15U C42A C45G] | 0.01 |
| GGCAGAGCUCAACAUAGCCUGGCAAAGUGUCUCUGGCUAGACUGCC [C15U G19C G30U G33C] | 0.11 |
| GGCAGAGCUCAACAUAACGUGCCAAAGUGUCUGUGGCUAGACUGCC [C15U G17A G22C G30U] | 0.15 |
| GGCAGAGCUCAACAUAGCGUAGCAAAGUGGCUGUGGCUAGACUGCU [C15U G21A C46U] | 0.03 |
| GGCAGAGCUCAACAGAGCGUGGCAAAGUGGCCGCGGCUAGACUGCC [C15G U32C U34C] | 0.05 |
| GGCAGAGCUCAACAUAGCGUGGCAAAUUGGCUGUGGCUACACGGCC [C15U G27U G40C U43G] | 0.06 |
| GGCAGAGCUCAACAUAGCGUGGCAAAGUGGCUGUGGCUUGAGUGCC [C15U A39U C42G] | 0.05 |
| GGCAGAGCUCAACAUCGUGUCGCAAAGAGGCUGAAGCUAGACUGCC [C15U A16C C18U G21C U28A U34A G35A] | 0.14 |
| GGCAGAGCUCAACAGAGCGUAGCAAAGUUGCUGUGGCUCGACUGCC [C15G G21A G29U A39C] | 0.02 |
| GGCAGAGCUCAACAUAGCGUGGAAAAGUGGUCGUGGCUAAACUUCC [C15U C23A C31U U32C G40A G44U] | 0 |
| GGCAGAGCUCAACAUAACGAGGCAAAGUGGCUGUGGAUAGACUGCC [C15U G17A U20A C37A] | 0.04 |
